Among all 150,000 compounds or so, about 540 (0.36%) showed an effect of 50% or more. This is one part of the list.

The subject of this assay is Plasmodium falciparum. Briefly: Primary screen in NF54 nanoGlo assay, in single point, at 2uM, 72h; a lower Z score goes with more inhibition. Type of assay: functional, Erythrocyte. The following applies: timepoint 72 hour.
For the molecule `Cn1cc(CCCNc2cc([C@H]3C[C@@H](N)C3)nc(N3CCCC3)n2)cn1`, the % Inhibition (usually the drop in the measured response relative to a control, in per cent) is on record as -1% and the Z score is on record as 0.07.
As for `O=C(NC[C@H]1COc2ccccc21)c1c(F)cccc1F`, the “% Inhibition” value was 11% and the Z score is listed as -1.39.
Regarding `C[C@@H](CN1CCOCC1)NC(=O)c1nccnc1N`, the “% Inhibition” value was -6% and the Z score was 1.1.
With `COc1ccc(S(=O)(=O)N2CCC3(CC2)C[C@@H]3NC(=O)c2ccncc2)cc1`, the “% Inhibition” value was -4% and the Z score was 0.58.
For `C[C@H](NCCn1ccnc1)c1cccc(F)c1F`, in that order: -9% and 1.67.
`Cc1cnc(Cn2cnc(-c3ccccc3)c2-c2ccccc2C(=O)O)cn1`: the “% Inhibition” value is on record as -14% and the Z score worked out at 1.3.
Regarding `CCc1ncc([C@H]2N(C)C(=O)c3ccccc3N2CC(=O)NC)s1`, the “% Inhibition” value is -7% and the Z score worked out at 0.93.
In the case of `COc1ccc(N2CCN(C(=O)C[C@]3(c4ccccc4F)CC(=O)N(C4CCCC4)C3=O)CC2)cc1`, the “% Inhibition” value is listed as 13% and the Z score is -2.41.
Regarding `Cc1ccc(-n2ncc3c(O)c(-c4nc(-c5ccc(Cl)cc5)no4)c(=O)[nH]c32)cc1`, the “% Inhibition” value was -15% and the Z score is listed as 2.38.
For the molecule `CCN=C(NCC)NCc1ccc(Cl)cc1`, the “% Inhibition” value was -15% and the Z score turned out to be 2.13.
As to `COc1ccc(-c2ccnc(-n3ncc(C(=O)NC4CCCC4)c3C)n2)cc1F`, the “% Inhibition” value is listed as -7% and the Z score is recorded as 0.96.
For `CC(C)(C)OC(=O)N1CCC(CC(=O)Nc2cnccc2O)CC1`, the “% Inhibition” value is given as -19% and the Z score worked out at 1.86.
As to `O=C(NCCN1c2ccccc2N(C2CC2)S1(=O)=O)c1ccoc1`, the “% Inhibition” value was -12% and the Z score was 1.9.
With `C[C@@H](C1CC1)N(C)S(=O)(=O)NCc1nnc2ccccn12`, the “% Inhibition” value was -11% and the Z score worked out at 0.95.
For `CCn1nc(CC(C)C)cc1C(=O)N1CCC(Cc2nc(C)no2)CC1`, in that order: -14% and 2.21.
As for `Cn1nc(-c2ccccc2)c(CN(CC2CC2)C[C@H](O)CN2CCOCC2)c1Oc1ccccc1F`, the “% Inhibition” value worked out at 2% and the Z score is reported as -0.25.
For `CC1CCC(OC2CCN(S(C)(=O)=O)CC2)CC1` (configuration not stated), the “% Inhibition” value is -4% and the Z score worked out at 0.7.
For the molecule `CC1CC(C(=O)N2CCCCCCC2)C1` (configuration not stated), the “% Inhibition” value is 4% and the Z score was -0.43.
Take `O=C(NCC1CC1)c1cnc(-c2ccc(F)cc2)nc1N1CCC(Cc2ccccc2)CC1`: the “% Inhibition” value is reported as -5% and the Z score amounted to 0.81.
On to `COC[C@H]1CN(c2ccc3nccnc3n2)CCO1`, for which the “% Inhibition” value is reported as -25% and the Z score is on record as 2.9.
On to `CCOC(=O)C1CCN(C(=O)C(Cl)(Cl)Cl)CC1`, for which the “% Inhibition” value is -4% and the Z score is on record as 0.78.
Regarding `COc1cncc(C(NC(=O)Cc2ccc(Cl)cc2)[C@H]2C[C@@H](O)C2)c1` (some centres not stated), the “% Inhibition” value was 2% and the Z score is on record as -0.16.
In the same order, the values of `CC(C)c1cc(N(C)CCN(C)C2CCCC2)ncn1` are -5% and 0.72.
As for `CCOC(=O)N1CCC(NC(=O)c2oc(C)nc2C)CC1`, the “% Inhibition” value is on record as -5% and the Z score is 0.92.
Take `O=C(Cn1c(-c2ccccc2)cc2ccccc21)N1CCC(C(=O)N2CCCCCC2)CC1`: the “% Inhibition” value is 17% and the Z score is listed as -1.94.
Take `N#C[C@@H](NC(=O)CCc1cscn1)c1ccc(F)cc1F`: the “% Inhibition” value is recorded as -6% and the Z score was 0.79.
On to `O=C(c1ccccc1C(F)(F)F)N1CCN(c2nccs2)C(=O)C1`, for which the “% Inhibition” value amounted to 8% and the Z score is recorded as -1.07.
`c1ccc(CN2C[C@H]3CC[C@@H](C2)N(Cc2cnc(N4CCCC4)s2)C3)cc1`: the “% Inhibition” value was determined as 2% and the Z score is -0.26.
Turning to `O=C(Nc1cccc(F)c1)N1C[C@@H]2C[C@H](C1)c1c(-c3ccc4ccccc4c3)ccc(=O)n1C2`, the “% Inhibition” value was 0% and the Z score was -0.07.
`COC(=O)c1c(NC(=O)[C@H]2CCCN(S(=O)(=O)c3cnn(C)c3C)C2)cnn1C`: the “% Inhibition” value turned out to be 38% and the Z score is -5.44.
For `COCCn1c(N)c(N(Cc2ccccc2)C(=O)Cn2c(C)cc3ccccc32)c(=O)[nH]c1=O`, the “% Inhibition” value is listed as -11% and the Z score was 1.8.
For `Cc1[nH]c([C@H]2CC(=O)N(CC(C)C)C2)nc1-c1ccc(Cl)cc1`, in that order: -14% and 1.73.
`Cc1ccc(CCC(=O)N2CC3CN(C)C(c4ccccc4)C3C2)o1` (configuration not stated): the “% Inhibition” value is reported as 10% and the Z score is -1.12.
Take `Cc1c(C(=O)N(C)Cc2ccc(C3CC3C)o2)cnn1C` (configuration not stated): the “% Inhibition” value is reported as -2% and the Z score came to 0.24.
`CC(=Cc1ccc(C)cc1)C(=O)N1CC(c2n[nH]c3c2COCC3)C1`: the “% Inhibition” value is recorded as -2% and the Z score is 0.19.
For `Cn1nc(C(F)(F)F)cc1CS(=O)(=O)c1ccc2c(c1)CCC2`, in that order: -11% and 1.91.
In the same order, the values of `COCc1nc(C(=O)NCc2c(C)cc(C)[nH]c2=O)cs1` are -12% and 1.04.
`COCc1nn2c(c1-c1ccccc1)NC(=O)[C@@H]2CC(=O)Nc1cc(Cl)ccc1OC`: the “% Inhibition” value came out at 13% and the Z score is on record as -1.92.
For `Cc1nnsc1CN(C)C(=O)c1ccc(Cl)cc1`, in that order: -11% and 1.54.
As for `COc1ccc(NC(=O)C(F)(F)F)cc1OC`, the “% Inhibition” value is recorded as -9% and the Z score stood at 1.24.
For `CC(O)C1CN(C(=O)C2CCCN2c2ccccc2)CCO1` (configuration not stated), the “% Inhibition” value was -5% and the Z score was found to be 0.96.

Values taken from ChEMBL document CHEMBL4888484, “Replenishing the malaria drug discovery pipeline: Screening and hit evaluation of the MMV Hit Generation Library 1 (HGL1) against asexual blood stage Plasmodium falciparum ,using a nano luciferase reporter read-out” (2022).
